Measured values: ChEMBL document CHEMBL4888484, “Replenishing the malaria drug discovery pipeline: Screening and hit evaluation of the MMV Hit Generation Library 1 (HGL1) against asexual blood stage Plasmodium falciparum ,using a nano luciferase reporter read-out” (2022)
The campaign covered roughly 150,000 compounds. About 540 (0.36%) showed an effect of 50% or more. The list shows a part of the results.

Tested on: Plasmodium falciparum
Test: Primary screen in NF54 nanoGlo assay, in single point, at 2uM, 72h; a lower Z score goes with more inhibition
Type: functional, Erythrocyte
Settings: timepoint 72 hour

Row | Compound | % Inhibition | Z score
1 | COc1ccc2c(c1)N1CCN(c3ccccn3)CC1C(C(=O)NC(C)C)C2 (stereo not drawn) | -1% | 0.15
2 | CN1C[C@@H](NC(=O)c2ccn(C)n2)Cc2ccccc21 | -11% | 1.48
3 | C[C@H](NC(=O)N1Cc2ccccc2C2(CC2)C1)C(C)(C)CN(C)C | -7% | 0.7
4 | Cc1ccc(-c2noc(CCC(=O)NC3CCCC3)n2)c(=O)n1C(C)C | -8% | 1.17
5 | CC1=CCCC(C)C1CN1CCC(n2cncn2)CC1 (stereo not drawn) | -7% | 0.94
6 | C[C@H](NS(=O)(=O)c1ccc2c(c1)NC(=O)CO2)c1ccccn1 | -43% | 5.06
7 | O=C(CCC1CCCCCC1)N1CCC(c2cnco2)CC1 | -7% | 0.83
8 | Cc1cccc(N/C(=N/C(=N)NC(=O)c2ccccc2)Nc2nc(C)cc(C)n2)c1 | -1% | 0.24
9 | CCO[C@H]1CCCN(C(=O)c2cn(-c3ccccc3)nc2-c2ccc(C)o2)C1 | -8% | 1.03
10 | Cc1nc(NCc2nnc3n2CCC3)c2cccnc2n1 | -10% | 1.41
11 | CCOC(=O)c1nc(Nc2cccc(C)c2)c2c(C)c(C)n(-c3ccccc3)c2n1 | -1% | 0.16
12 | CC(=O)c1ccc(OCCN2C(=O)C3(OCCO3)c3ccc(Cl)c(Cl)c32)cc1 | 2% | -0.35
13 | O=C(Nc1cccc(C(F)(F)F)c1)[C@@H]1C2C=CC(C2)[C@@H]1C(=O)O (stereo partly drawn) | -9% | 1.41
14 | CCN1CCN(S(=O)(=O)N2CCCC[C@@H]2C)CC1 | 6% | -0.76
15 | CCCn1c(C)nnc1COC(=O)c1cccc2cn[nH]c12 | 29% | -2.96
16 | Cn1cc(C(=O)N[C@@H]2CCCc3c(F)cc(F)cc32)cn1 | -12% | 2.27
17 | CC(C)(C)CN1CCC[C@H](N2CCC(O)(O)C(F)(F)C2)C1=O | -7% | 1.43
18 | CC(=O)N1CCCN(C(=O)c2cnc3ccccc3n2)CC1 | -4% | 0.51
19 | CC(C)(CN[C@H](C1CCCCC1)C1CC1)C(N)=O | -10% | 1.45
20 | Cc1cccc(CN(C(=O)CCn2ccc(=O)[nH]c2=O)C2CCCCC2)c1 | -7% | 1.31
21 | CN(C)S(=O)(=O)N(CCNC(=O)Nc1ccccc1)C1CCOCC1 | -9% | 1.43

Row | Compound | % Inhibition | Z score
22 | Cn1nnc(-c2cccc(NC(=O)c3[nH]nc4c3CCC4)c2)n1 | -16% | 1.7
23 | COC1([C@H](C)NC(=O)c2cnn3c2CCC3)CCC1 | -9% | 1.22
24 | O=C(NC1CC1)[C@@H]1CN(Cc2cccn2-c2nccs2)CCN1 | -2% | 0.48
25 | CCCc1cncnc1-c1cccc(C(=O)N2CCN3CCNC(=O)[C@@H]3C2)c1 | -11% | 1.94
26 | Nc1ccc(-c2ccc(S(=O)(=O)c3cccc(N)c3)cc2N)cc1 | -4% | 0.82
27 | CC(CCS(C)(=O)=O)NC(=O)NC1CCCC12CCOCC2 (stereo not drawn) | 7% | -0.88
28 | Cc1ccc(-c2nnc3c4ccccc4nc(N4CCCN(C(=O)c5cccc(C)c5)CC4)n23)cc1 | 9% | -1.78
29 | CC(C)CC1NC(=O)C(O)(C(F)(F)F)NC1=O (stereo not drawn) | 1% | -0.08
30 | O=C(NCCCc1ccccc1)N1C2CCC1CC(n1cncn1)C2 (stereo not drawn) | -12% | 1.37
31 | Cc1cc(C(=O)N2CCC(Cc3ccc(CCC(=O)N4CCCC4)cc3)CC2)n(C)n1 | -9% | 1.22
32 | O=c1nc([C@H]2CCCN(c3ncnc4ccc(F)cc34)C2)[nH][nH]1 | -5% | 0.45
33 | C[C@@H]1CN(CC(=O)N2CC[C@](C)(O)[C@H](Cc3ccccc3)C2)C[C@H](C)O1 | -7% | 1.26
34 | CCC(=O)N1CCc2cc(CNC(=O)c3ccc(N(C)C)cc3)ccc21 | -11% | 1.93
35 | CC(=O)NCC1CCN(Cc2cc3cc(F)ccc3n2C)CC1 | 8% | -0.69
36 | Cc1ccccc1CNC(=O)N1C[C@H](C(=O)O)[C@@H](C2CC2)C1 | -3% | 0.59
37 | CC(=O)N1CCC(NC2(Cc3cc(CN(C)Cc4ccccc4)on3)COC2)CC1 | 17% | -1.94
38 | CS(=O)(=O)N1CCC(Oc2nc3c(F)cc(F)cc3s2)CC1 | -8% | 1.11
39 | CCN1C(=O)CC(C(=O)O)C1c1ccccc1C (stereo not drawn) | 3% | -0.31
40 | CC(=O)Nc1cccc(NC(=O)COc2cccc3c2CCC=C3)c1 | -10% | 0.86
41 | Cc1nc2cc(NC(=O)C(C)C)cc(C(=O)N(C)Cc3cnn(C)c3)c2n1Cc1ccccc1 | -16% | 2.09
42 | O=S(=O)(C[C@H]1CCCCO1)N1CCC(Oc2ccccc2Cl)CC1 | -7% | 1.02

Row | Compound | % Inhibition | Z score
43 | O=C1CCCN1C[C@H]1CCCN(C(=O)c2cn[nH]c2)C1 | 3% | -0.55
44 | O=C(Nc1nc2ccccc2[nH]1)c1ccon1 | -9% | 0.81
45 | O=C(NCC[C@H](O)c1cccc(Cl)c1)c1ccoc1 | 1% | -0.22
46 | Cc1cc(S(=O)(=O)N2CCC[C@H]2c2ccc(CN(C)C)cc2)c(C)s1 | -2% | 0.2
47 | CC(C)CCN1CCOC[C@H]1c1ncon1 | -5% | 0.75
48 | O=C(Nc1nnc2ccccn12)c1c[nH]nc1-c1ccccc1 | 4% | -0.43
49 | Cn1cc(NC(=O)N2CCCC[C@@H]2CCc2ccccc2)cn1 | -8% | 1.39
50 | CCOc1cccc(CNC(=O)C2CN3CCCC3CO2)c1 (stereo not drawn) | 10% | -1.13
51 | Cc1ccn2c(NS(=O)(=O)c3c(Cl)cc(Cl)cc3Cl)nnc2c1 | -9% | 1.38
52 | COc1ccc(CCNC(=O)c2cccc3sc(N4CCCc5ccccc54)nc23)cc1OC | -7% | 0.95
53 | COc1ccc(NC(=O)CC2(N3Cc4ccccc4C3=O)CCN(C(C)=O)CC2)cc1 | -6% | 0.73
54 | CCCN(C)c1nccn2c(=O)n(CC(=O)Nc3ccc(C)cc3)nc12 | 5% | -0.92
55 | CCc1nc(CC(=O)NC(c2ccc(F)cc2)C2CCCO2)cs1 (stereo not drawn) | -3% | 0.46
56 | C#CCN(C)C(=O)[C@@H](C)c1ccccc1 | -5% | 0.64
57 | COc1ccc(C(=O)N/C(=N/c2cccc(C)c2)N2CCN(C3CCCCC3)CC2)cc1OC | 1% | -0.25
58 | COc1ccc(C(=O)N2c3ncnn3C(c3ccccc3)CC2c2ccc(C)cc2)cc1OC (stereo not drawn) | 76% | -10.75
59 | O[C@@H]1CCC[C@@H]2CN(Cc3cc(F)cc(F)c3)C[C@@H]21 | -9% | 0.9
60 | CN1c2cccnc2CN(Cc2ccc(Cl)cc2)CC[C@H]1CO | 0% | -0.03
61 | CC[C@H](C)n1nccc1NC(=O)c1ccc2nnnn2c1 | -6% | 0.87
62 | COc1ccccc1N1CCN(C(=O)Cn2c(-c3ccc(F)cc3)nc(C)cc2=O)CC1 | -11% | 0.97
63 | CN1C(=O)CC(C(=O)NC2CCc3nccn3C2)C1c1cccnc1 (stereo not drawn) | -1% | 0.11

Row | Compound | % Inhibition | Z score
64 | Cc1nc(C)c(-c2cccc(C(=O)N(CCO)Cc3nccs3)c2)s1 | -17% | 2.4
65 | CC[C@]1(O)CCCN(C(=O)c2cncc(O)n2)C1 | -10% | 1.14
66 | O=C(CCN1CCCCC1)c1ccc2c(c1)OCCO2 | -15% | 1.34
67 | CCCCn1nc(C(=O)Nc2cccc(-c3nccs3)c2)ccc1=O | -8% | 1.3
68 | COc1cc(Cl)c(C)cc1NC(=O)Cc1nnc(-c2cnccn2)o1 | -7% | 0.66
69 | CC(C)c1nnsc1CN(C)CCC1(O)CCCC1 | -14% | 3.02
70 | CC(=O)N1CCC2(CC1)NC1(CCCC1)C(=O)N2CC1CC1 | -18% | 1.6
71 | CCN1CCN([C@H](c2ccncc2)c2c(NC(=O)c3cccs3)sc(C)c2C)CC1 | 8% | -1.61
72 | N#C[C@]1(NC(=O)CN2CCC(=O)NC2=O)CCc2ccccc2C1 | -5% | 0.76
73 | CN(CC1(CO)CCOCC1)C(=O)c1ccc2cccc(F)c2n1 | 6% | -0.75
74 | CC(O)CN1CCN(S(=O)(=O)c2ccc3c(c2)OCCO3)C(C)C1 (stereo not drawn) | -13% | 1.82
75 | CCc1cc(-c2n[nH]c(C)c2-c2nnc(-c3ccccc3)s2)c(O)cc1O | 13% | -1.74
76 | O=C(N[C@@H]1CN(CCCc2ccccc2)C[C@H]1CO)c1cnccn1 | -13% | 2.15
77 | COc1ccc(-n2nc(C(=O)N3CCN(C(C)=O)CC3)c(=O)n(Cc3ccc(F)cc3)c2=O)cc1 | -15% | 1.49
78 | CCCN1CCCN(c2ccc3nncn3n2)CC1=O | -13% | 2.12
79 | CCCCN(CCCNC(=O)C[C@@H]1Nc2ccccc2NC1=O)Cc1ccccc1 | -3% | 0.54
80 | CCn1cc(CN(C)CC2=CCCCC2)cn1 | -13% | 2.23
81 | Cn1cnc(C(=O)N[C@H]2CCCC[C@@H]2F)n1 | -10% | 1.4
82 | Cc1sc2ccccc2c1CNC[C@@H]1C[C@H](CO)N(C)[C@@H]1c1ccccc1F | 2% | -0.23
83 | CC(C)(O)CN(C1CC1)S(=O)(=O)C1(C)CC1 | 5% | -0.98
84 | CN1CCC(=O)Nc2cc(C(=O)N3C[C@@H]4CCCCN4c4ccccc43)ccc21 | -18% | 2.56
